T1: Nox4 (NADPH oxidase 4), endogenous in human monocyte-derived macrophages (human (endogenous in HMDM)) (UniProt Q9NPH5)
T1 sequence: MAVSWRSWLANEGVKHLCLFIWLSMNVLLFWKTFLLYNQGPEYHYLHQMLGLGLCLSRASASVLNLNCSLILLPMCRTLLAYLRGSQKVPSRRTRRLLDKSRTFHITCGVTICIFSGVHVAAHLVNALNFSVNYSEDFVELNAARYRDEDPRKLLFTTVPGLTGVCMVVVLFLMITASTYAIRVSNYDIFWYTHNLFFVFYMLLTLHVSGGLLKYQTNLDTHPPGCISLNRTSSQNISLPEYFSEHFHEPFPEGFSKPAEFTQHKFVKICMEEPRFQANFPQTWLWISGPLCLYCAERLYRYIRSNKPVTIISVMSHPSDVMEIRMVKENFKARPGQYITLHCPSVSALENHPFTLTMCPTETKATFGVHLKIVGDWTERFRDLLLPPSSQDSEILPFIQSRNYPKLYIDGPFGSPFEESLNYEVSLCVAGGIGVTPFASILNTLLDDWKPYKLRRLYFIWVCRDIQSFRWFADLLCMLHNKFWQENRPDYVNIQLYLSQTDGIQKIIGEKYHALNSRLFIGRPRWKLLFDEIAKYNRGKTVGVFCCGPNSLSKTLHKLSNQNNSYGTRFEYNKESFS

The chains behind the UniProt entries cited, without tags or fusion partners.
UniProt P27361: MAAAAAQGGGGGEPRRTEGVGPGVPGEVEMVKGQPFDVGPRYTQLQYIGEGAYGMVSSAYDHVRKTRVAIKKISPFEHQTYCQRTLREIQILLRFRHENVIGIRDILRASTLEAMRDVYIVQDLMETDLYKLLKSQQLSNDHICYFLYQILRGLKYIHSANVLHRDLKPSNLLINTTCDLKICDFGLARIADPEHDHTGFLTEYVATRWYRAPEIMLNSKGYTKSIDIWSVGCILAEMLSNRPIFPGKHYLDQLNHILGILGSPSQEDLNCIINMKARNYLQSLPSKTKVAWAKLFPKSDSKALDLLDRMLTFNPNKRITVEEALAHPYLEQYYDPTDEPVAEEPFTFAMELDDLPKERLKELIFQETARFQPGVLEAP
UniProt P28482: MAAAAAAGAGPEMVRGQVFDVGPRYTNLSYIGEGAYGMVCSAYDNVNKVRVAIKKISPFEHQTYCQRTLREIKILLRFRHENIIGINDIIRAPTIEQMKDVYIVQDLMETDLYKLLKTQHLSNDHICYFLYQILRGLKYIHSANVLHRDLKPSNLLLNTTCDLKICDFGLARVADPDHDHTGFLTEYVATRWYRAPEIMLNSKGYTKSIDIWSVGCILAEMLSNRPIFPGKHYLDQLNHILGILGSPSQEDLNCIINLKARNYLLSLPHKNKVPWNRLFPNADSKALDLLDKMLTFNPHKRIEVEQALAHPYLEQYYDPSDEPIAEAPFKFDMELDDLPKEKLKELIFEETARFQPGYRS
UniProt Q05397: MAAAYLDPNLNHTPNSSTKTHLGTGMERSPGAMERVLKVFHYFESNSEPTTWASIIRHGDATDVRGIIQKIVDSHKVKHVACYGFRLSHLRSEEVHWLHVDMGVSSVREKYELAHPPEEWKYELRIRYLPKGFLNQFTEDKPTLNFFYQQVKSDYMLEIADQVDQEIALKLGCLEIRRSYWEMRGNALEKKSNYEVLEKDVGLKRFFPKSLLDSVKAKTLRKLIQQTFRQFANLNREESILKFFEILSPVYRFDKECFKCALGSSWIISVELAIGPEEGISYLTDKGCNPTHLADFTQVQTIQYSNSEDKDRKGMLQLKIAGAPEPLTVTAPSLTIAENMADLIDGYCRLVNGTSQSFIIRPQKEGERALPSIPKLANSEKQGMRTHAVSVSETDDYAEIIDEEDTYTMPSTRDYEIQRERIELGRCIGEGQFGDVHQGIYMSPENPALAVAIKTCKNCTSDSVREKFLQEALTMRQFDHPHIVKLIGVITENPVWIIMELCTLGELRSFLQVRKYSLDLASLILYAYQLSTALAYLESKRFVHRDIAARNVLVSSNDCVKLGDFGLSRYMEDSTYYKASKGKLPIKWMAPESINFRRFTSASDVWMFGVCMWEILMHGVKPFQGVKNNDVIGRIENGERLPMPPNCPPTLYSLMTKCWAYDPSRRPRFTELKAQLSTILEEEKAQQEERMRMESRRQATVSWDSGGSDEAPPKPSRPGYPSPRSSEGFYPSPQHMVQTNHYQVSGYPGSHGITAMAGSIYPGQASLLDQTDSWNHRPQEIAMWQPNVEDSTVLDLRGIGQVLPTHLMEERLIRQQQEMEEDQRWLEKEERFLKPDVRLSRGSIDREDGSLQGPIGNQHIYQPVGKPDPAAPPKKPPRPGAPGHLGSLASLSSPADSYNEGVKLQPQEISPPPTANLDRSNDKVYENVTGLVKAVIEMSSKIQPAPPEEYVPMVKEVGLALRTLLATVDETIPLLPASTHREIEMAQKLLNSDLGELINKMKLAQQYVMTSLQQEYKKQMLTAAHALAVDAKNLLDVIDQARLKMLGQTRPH
UniProt P49023: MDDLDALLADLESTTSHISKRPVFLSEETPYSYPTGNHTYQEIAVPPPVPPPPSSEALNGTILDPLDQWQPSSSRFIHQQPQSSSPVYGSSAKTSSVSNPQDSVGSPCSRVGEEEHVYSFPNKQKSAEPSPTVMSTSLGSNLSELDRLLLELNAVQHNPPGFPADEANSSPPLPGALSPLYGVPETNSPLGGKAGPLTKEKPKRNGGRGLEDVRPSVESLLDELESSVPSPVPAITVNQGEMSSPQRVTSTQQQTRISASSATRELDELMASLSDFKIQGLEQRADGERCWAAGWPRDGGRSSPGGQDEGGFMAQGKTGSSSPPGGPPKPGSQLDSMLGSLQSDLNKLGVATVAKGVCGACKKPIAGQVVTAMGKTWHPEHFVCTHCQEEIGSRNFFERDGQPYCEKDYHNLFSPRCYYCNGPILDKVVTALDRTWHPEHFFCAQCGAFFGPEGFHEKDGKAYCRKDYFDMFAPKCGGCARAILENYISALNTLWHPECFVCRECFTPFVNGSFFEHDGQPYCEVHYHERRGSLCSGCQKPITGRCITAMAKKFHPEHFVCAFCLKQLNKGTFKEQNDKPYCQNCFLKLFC

B1: low molecular weight protein tyrosine phosphatase (enzyme, UniProt P24666 1-158)
chain: MAEQATKSVLFVCLGNICRSPIAEAVFRKLVTDQNISENWRVDSAATSGYEIGNPPDYRGQSCMKRHGIPMSHVARQITKEDFATFDYILCMDESNLRDLNRKSNQVKTCKAKIELLGSYDPQKQLIIEDPYYGNDSDFETVYQQCVRCCRAFLEKAH
B2: p22phox (protein, UniProt P13498 1-195)
chain: MGQIEWAMWANEQALASGLILITGGIVATAGRFTQWYFGAYSIVAGVFVCLLEYPRGKRKKGSTMERWGQKYMTAVVKLFGPFTRNYYVRAVLHLLLSVPAGFLLATILGTACLAIASGIYLLAAVRGEQWTPIEPKPRERPQIGGTIKQPPSNPPPRPPAEARKKPSEEEAAVAAGGPPGGPQVNPIPVTDEVV

These are yes or no findings as the source states them, for the method shown. In cells and extracts the contact can be indirect. Some entries that bind do so weakly or less than the wild type.

This assay addresses T1, Nox4 (NADPH oxidase 4), endogenous in human monocyte-derived macrophages (human (endogenous in HMDM)). As to the kind of experiment: co-IP; HMDM lysate (MES-buffered saline, 1% Triton X-100, 1 mM EDTA, 0.5% NP-40), precleared with Protein G Sepharose; rabbit monoclonal Nox4 antibody or rabbit serum (control), 4°C overnight; Protein G Sepharose; Western blot. (In general: A western blot detects proteins with antibodies after separation by electrophoresis.)
For the molecule “MAPK ERK1 (from UniProt P27361 1-379) (enzyme)”, the binding entry is “binds”.

Consider “MAPK ERK2 (from UniProt P28482 1-360) (enzyme)”, for which the binding entry is “binds”.

For the molecule “focal adhesion kinase phosphorylated at tyrosine-397 (from UniProt Q05397 1-1052) (enzyme)”, the binding entry is given as “binds”.

For the molecule paxillin (from UniProt P49023 1-591), the binding result is on record as “binds”.

Take B1: the binding entry is on record as “no binding”.

For the molecule B2, the binding entry is “binds”.

These data come from article PMC3688996.
